{"source": "paper PMC4336329", "about": "(PLoS ONE, 2015)", "note": "Out of some 310,000 compounds screened, about 2,200 (0.71%) showed an effect of 50% or more. The effect is printed as a negative number. The list shows a part of the results."}
{"molecular_target": "human ether-à-go-go-related gene (hERG) potassium channel (human, UniProt Q12809)", "sequence (Q12809 whole entry, looked up)": "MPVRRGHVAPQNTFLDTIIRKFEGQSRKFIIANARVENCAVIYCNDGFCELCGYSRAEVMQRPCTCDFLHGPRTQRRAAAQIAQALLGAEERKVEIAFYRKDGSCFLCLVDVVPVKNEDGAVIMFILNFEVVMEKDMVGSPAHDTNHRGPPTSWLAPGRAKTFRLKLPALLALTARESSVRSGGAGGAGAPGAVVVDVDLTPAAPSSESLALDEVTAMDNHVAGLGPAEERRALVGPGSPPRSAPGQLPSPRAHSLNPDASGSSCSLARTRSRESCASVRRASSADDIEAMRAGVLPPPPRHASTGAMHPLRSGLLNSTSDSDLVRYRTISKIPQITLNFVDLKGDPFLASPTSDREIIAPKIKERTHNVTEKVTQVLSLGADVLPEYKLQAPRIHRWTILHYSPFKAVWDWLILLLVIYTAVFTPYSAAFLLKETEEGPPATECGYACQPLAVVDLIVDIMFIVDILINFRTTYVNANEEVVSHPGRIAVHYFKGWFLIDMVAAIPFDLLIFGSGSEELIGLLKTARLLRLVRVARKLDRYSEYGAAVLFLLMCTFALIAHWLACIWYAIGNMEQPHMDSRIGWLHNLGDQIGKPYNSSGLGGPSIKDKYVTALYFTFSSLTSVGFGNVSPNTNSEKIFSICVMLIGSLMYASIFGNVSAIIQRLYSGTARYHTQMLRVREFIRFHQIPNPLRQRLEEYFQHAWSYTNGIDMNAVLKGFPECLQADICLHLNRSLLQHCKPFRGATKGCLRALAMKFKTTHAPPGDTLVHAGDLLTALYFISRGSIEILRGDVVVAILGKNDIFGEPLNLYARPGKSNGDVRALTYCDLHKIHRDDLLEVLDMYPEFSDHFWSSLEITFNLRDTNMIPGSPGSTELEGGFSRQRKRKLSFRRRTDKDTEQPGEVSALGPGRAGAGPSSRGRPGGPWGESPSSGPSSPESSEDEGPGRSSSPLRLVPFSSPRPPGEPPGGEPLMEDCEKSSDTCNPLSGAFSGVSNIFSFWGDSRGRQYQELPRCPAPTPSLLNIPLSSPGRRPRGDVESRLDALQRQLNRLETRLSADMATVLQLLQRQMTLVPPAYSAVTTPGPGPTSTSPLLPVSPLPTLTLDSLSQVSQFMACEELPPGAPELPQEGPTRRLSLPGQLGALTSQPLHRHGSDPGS", "experiment": "primary screen, population patch clamp on CHO cells stably expressing hERG", "units": {"hERG current change (%, negative = inhibition) at 1uM": "%"}}
{"smiles": "O=c1c(C(c2ccc(Br)cc2)c2c(O)nc3n(c2=O)CCCS3)c(O)nc2n1CCCS2", "hERG current change (%, negative = inhibition) at 1uM": 14.1}
{"smiles": "CC/C=C/C(=O)N1CC2(CC(c3cccc(NC(=O)CC)c3)=NO2)C[C@H]1C(N)=O", "note": "(stereo partly drawn)", "hERG current change (%, negative = inhibition) at 1uM": 13.8}
{"smiles": "Cc1nc2cc3sc(C)nc3cc2s1", "hERG current change (%, negative = inhibition) at 1uM": 13.7}
{"smiles": "Cc1cc([N+](=O)[O-])nn1CC(=O)NCCc1c[nH]c2ccccc12", "hERG current change (%, negative = inhibition) at 1uM": 20.6}
{"smiles": "O=C(Nc1cccc2cccnc12)c1cccnc1", "hERG current change (%, negative = inhibition) at 1uM": 7.11}
{"smiles": "O=C(N/N=C/C=C/c1ccco1)C(O)c1ccccc1", "note": "(stereo not drawn)", "hERG current change (%, negative = inhibition) at 1uM": 13.4}
{"smiles": "CCOc1cc(/C=C\\[N+](=O)[O-])ccc1OCC(=O)Nc1ccccc1C", "hERG current change (%, negative = inhibition) at 1uM": 6.9}
{"smiles": "Nn1c(C2CCC2)nc2cc(Cl)ccc2c1=O", "hERG current change (%, negative = inhibition) at 1uM": 10.9}
{"smiles": "Cc1nc(-c2ccccc2)nc(-c2ccccc2)n1", "hERG current change (%, negative = inhibition) at 1uM": 2.39}
{"smiles": "Cc1ccc(C)c(-n2nnnc2SCC(=O)c2c(N)n(C)c(=O)n(C)c2=O)c1", "hERG current change (%, negative = inhibition) at 1uM": 7.61}
{"smiles": "CCOC(=O)NNC(=O)C12CC3CC(CC(C3)C1)C2", "hERG current change (%, negative = inhibition) at 1uM": 13.4}
{"smiles": "O=C(CCCNC(=O)c1ccc(Cl)cc1)NCc1ccccc1Cl", "hERG current change (%, negative = inhibition) at 1uM": -1.33}
{"smiles": "Cc1cc(C)cc(-c2nnc(SCC(=O)NC3CC3)o2)c1", "hERG current change (%, negative = inhibition) at 1uM": 0.448}
{"smiles": "CC(Sc1ncccn1)C(=O)NC1(C#N)CCCCC1", "note": "(stereo not drawn)", "hERG current change (%, negative = inhibition) at 1uM": 14.1}
{"smiles": "COc1ccc(CNC(=O)C2CCCN(c3nccc(C)n3)C2)cc1", "note": "(stereo not drawn)", "hERG current change (%, negative = inhibition) at 1uM": -3.39}
{"smiles": "NNC(=S)NC1CCS(=O)(=O)C1", "note": "(stereo not drawn)", "hERG current change (%, negative = inhibition) at 1uM": 14.2}
{"smiles": "Cc1cc(C)n(C(C)CNS(=O)(=O)c2ccc(C)c(C)c2)n1", "note": "(stereo not drawn)", "hERG current change (%, negative = inhibition) at 1uM": 16.3}
{"smiles": "COc1ccc(Cl)cc1NC(=O)C[n+]1ccccc1.[Cl-]", "hERG current change (%, negative = inhibition) at 1uM": 9.24}
{"smiles": "COc1cccc(NC(=O)Cn2c(=O)n(CC3CCCO3)c(=O)c3ccccc32)c1", "note": "(stereo not drawn)", "hERG current change (%, negative = inhibition) at 1uM": 11.5}
{"smiles": "CC(C)Oc1ccc(C(=O)NCCCNC(=O)c2ccccn2)cc1", "hERG current change (%, negative = inhibition) at 1uM": 12.2}
{"smiles": "Cc1ccc(C)c(S(=O)(=O)N2CCCOC2CNC(=O)C(=O)NCc2ccccc2)c1", "note": "(stereo not drawn)", "hERG current change (%, negative = inhibition) at 1uM": 14.1}
{"smiles": "CC(C)c1ccc(NC2CCCN(C(=O)CC3CCCC3)C2)cc1", "note": "(stereo not drawn)", "hERG current change (%, negative = inhibition) at 1uM": 1.09}
{"smiles": "Cc1ccc(CNC(=O)c2cc(Cl)cc(Cl)c2)n1C", "hERG current change (%, negative = inhibition) at 1uM": 2.27}
{"smiles": "O=CNC(n1cnc2c(N3CCOCC3)ncnc21)C(Cl)(Cl)Cl", "note": "(stereo not drawn)", "hERG current change (%, negative = inhibition) at 1uM": 9.52}
{"smiles": "COc1cc(C=O)ccc1OCc1cccc(Br)c1", "hERG current change (%, negative = inhibition) at 1uM": 6.9}
{"smiles": "CC(C)(C)c1cc(CCC(=O)NNC(=S)NC(=O)c2ccccc2)cc(C(C)(C)C)c1O", "hERG current change (%, negative = inhibition) at 1uM": 8.25}
{"smiles": "O=C1N2CCSC2=NC1(Nc1ccccn1)C(F)(F)F", "note": "(stereo not drawn)", "hERG current change (%, negative = inhibition) at 1uM": 9.13}
{"smiles": "COc1cccc(CNC(=O)CSc2ccc(-c3ccccn3)nn2)c1", "hERG current change (%, negative = inhibition) at 1uM": 2.34}
{"smiles": "Cc1cccc(N(C)S(=O)(=O)c2ccc(-c3cc(C)no3)s2)c1", "hERG current change (%, negative = inhibition) at 1uM": 10.7}
{"smiles": "Cc1ccc(N/C(N)=N/c2nc(CSc3ccccn3)cc(=O)[nH]2)c(C)c1", "hERG current change (%, negative = inhibition) at 1uM": 9.97}
{"smiles": "COc1ccc(CCNC(=O)CCNC(=O)c2ccco2)cc1OC", "hERG current change (%, negative = inhibition) at 1uM": 15.5}
{"smiles": "Cc1ccc(Nc2cc(C)c3ccc(O)cc3n2)cc1C.Cl", "hERG current change (%, negative = inhibition) at 1uM": 8.28}
{"smiles": "Cc1ccc(NS(=O)(=O)c2ccc(C)c(C(=O)NCC(c3ccccc3)N(C)C)c2)cc1", "note": "(stereo not drawn)", "hERG current change (%, negative = inhibition) at 1uM": -0.441}
{"smiles": "CC(=O)c1ccc(NC(=S)Nc2ccc(Br)c(Cl)c2)cc1", "hERG current change (%, negative = inhibition) at 1uM": 13.3}
{"smiles": "COc1cc(S(=O)(=O)NCc2ccncc2)ccc1Br", "hERG current change (%, negative = inhibition) at 1uM": 10.8}
{"smiles": "COc1cccc(NC(=O)NCCC2=CCCCC2)c1", "hERG current change (%, negative = inhibition) at 1uM": -0.725}
{"smiles": "CCCCNC(=O)CNC(=O)c1nn(-c2ccc(OC)cc2)c(=O)c2ccccc12", "hERG current change (%, negative = inhibition) at 1uM": 7.19}
{"smiles": "O=C(COC(=O)c1ccc(Cl)c(Cl)c1)Nc1cccnc1Cl", "hERG current change (%, negative = inhibition) at 1uM": -0.005}
{"smiles": "O=C(C1CCC(=O)N(C2CC2)C1)N1CCN(c2cccc(Cl)c2)CC1", "note": "(stereo not drawn)", "hERG current change (%, negative = inhibition) at 1uM": 8.4}
{"smiles": "CCCc1nc2nc(C)c(NS(=O)(=O)c3ccc(C4CCCCC4)cc3)c(=O)n2[nH]1", "hERG current change (%, negative = inhibition) at 1uM": 12}
{"smiles": "O=C(CN1CCN(Cc2ccccc2)CC1)NCCc1ccccc1", "hERG current change (%, negative = inhibition) at 1uM": 12.5}
{"smiles": "COc1ccc(/C=C/C(=O)OC2CCCCC2CN(C)C)cc1.Cl", "note": "(stereo not drawn)", "hERG current change (%, negative = inhibition) at 1uM": 5.67}
{"smiles": "C/C(CC(=O)Nc1ccc([N+](=O)[O-])cc1)=N\\NC(=O)c1ccccc1O", "hERG current change (%, negative = inhibition) at 1uM": 12}
{"smiles": "CCOc1ccc(N(Cc2cc3ccc(C)cc3[nH]c2=O)C(=O)COC)cc1", "hERG current change (%, negative = inhibition) at 1uM": 2.08}
{"smiles": "Cc1ccccc1NC(=S)NC(C)C(c1cccs1)N1CCOCC1", "note": "(stereo not drawn)", "hERG current change (%, negative = inhibition) at 1uM": 11.4}
{"smiles": "CC1CN(CC(=O)N2CCc3[nH]c4ccccc4c3C2)CC(C)O1", "note": "(stereo not drawn)", "hERG current change (%, negative = inhibition) at 1uM": 8.25}
{"smiles": "CCN(CC)C(=O)CSc1nc2cc3c(cc2c(=O)n1CCCCCC(=O)NCc1ccc(OC)cc1)OCO3", "hERG current change (%, negative = inhibition) at 1uM": 11.2}
{"smiles": "Cc1ccc(C)c(NC(=O)CSc2nnc(CSc3nc(C)cc(C)n3)n2Cc2ccco2)c1", "hERG current change (%, negative = inhibition) at 1uM": 1.82}
{"smiles": "Cc1cccc(C)c1-n1cccc1/C=C1\\SC(=S)N(c2cccc(C(=O)O)c2)C1=O", "hERG current change (%, negative = inhibition) at 1uM": 21.2}
{"smiles": "CN1CCN(c2nc(-c3ccccc3)cc(C(F)(F)F)n2)CC1", "hERG current change (%, negative = inhibition) at 1uM": 1.65}
{"smiles": "CCN(CC(=O)NCC(=O)Nc1ccc(Br)cc1C)Cc1ccccc1", "hERG current change (%, negative = inhibition) at 1uM": 9.05}
{"smiles": "O=C1c2ccccc2C(=O)N1CCCCSc1nc2ccccc2o1", "hERG current change (%, negative = inhibition) at 1uM": 5.52}
{"smiles": "O=C1CN(C(=O)c2ccc(Cl)c(S(=O)(=O)N3CCc4ccccc43)c2)c2ccccc2N1", "hERG current change (%, negative = inhibition) at 1uM": -2.69}
{"smiles": "O=C(O)c1cccc2c1/C(=N/Nc1ccc([N+](=O)[O-])cc1[N+](=O)[O-])c1ccccc1-2", "hERG current change (%, negative = inhibition) at 1uM": 17.2}
{"smiles": "OCC1(CCc2ccccc2)CCN(Cc2cc(Cl)ccc2O)CC1", "hERG current change (%, negative = inhibition) at 1uM": -5.01}
{"smiles": "Cc1ccc(NC(=O)N2CCc3ccccc32)cc1", "hERG current change (%, negative = inhibition) at 1uM": 10.6}
{"smiles": "COc1ccccc1C1c2[nH]c3ccccc3c2C[C@H]2C(=O)N(C3CCN(Cc4ccccc4)CC3)CC(=O)N12", "note": "(stereo partly drawn)", "hERG current change (%, negative = inhibition) at 1uM": 1.62}
